# Experimental data: publication PMC12040169 (PLOS Biology, 2025)
# This is one part of the list.
# Test system: T1, C. trachomatis L2/434/Bu expressing GFP (CTL2-GFP)
# T1 construct: L2/434/Bu GFP intracellular growth in HeLa cells
# Parameters: species or system HeLa; C. trachomatis total inclusion area by high-content imaging, normalised to DMSO
# Conditions: total inclusion area; 28.5 h, 10 µM; inhibitor
# Summary of the method: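 Following bulk GFP and resorufin fluorescence reads, infected cells were fixed, Hoechst-stained and imaged on a high-content platform. Inclusion total area and number per well served as growth proxies; nuclei counts indicated host viability. MICs were derived as for the fluorescence assay.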
row,Compound,% of control remaining
1,Cc1cc(Cc2cccc(Cl)c2)cc(C2CCCN(C(=O)CN3CCCC3=O)C2)n1 (stereo not drawn) [CBK286103],106.571
2,CC(=O)Nc1ccc(S(=O)(=O)N2CCN(C(=O)COc3ccc4ccccc4c3)CC2)cc1 [CBK264164],105.744
3,Clc1ccc(Nc2nc(-c3ccoc3)cn3ccnc23)cc1 [CBK066497],82.3755
4,COc1ccc(/N=C2\NC(=O)/C(=C\C=C\c3ccccc3)S2)cc1 [CBK263417],104.24
5,CC1CCN(CC(CS(=O)(=O)c2ccc([N+](=O)[O-])cc2)N2CCC(C)CC2)CC1 (stereo not drawn) [CBK267506],99.9835
6,CCc1ccc(CNC2CCN(Cc3cscn3)CC2)o1 [CBK305104],74.499
7,Cc1c(C(C)NCC2CCN(C)CC2)cnn1-c1ccc(C#N)cc1 (stereo not drawn) [CBK304058],43.6861
8,Cc1ccccc1C(=O)NC1(C(F)(F)F)C(=O)Nc2c1c(=O)[nH]c(=O)n2CCc1ccccc1 (stereo not drawn) [CBK267483],106.563
9,CCOC(=O)CC1C(=O)NCCN1C/C=C\c1ccccc1OC (stereo not drawn) [CBK269791],100.527
10,Clc1ccc(-c2ccc(/C=N/c3ccc4oc(-c5ccccc5)nc4c3)o2)cc1 [CBK261969],107.422
11,O=C(O)COc1ccc(Br)cc1/C=C1\N=C(SCc2ccccc2)SC1=O [CBK265725],112.552
12,Cc1ncccc1COC(=O)N1CCSCC1 [CBK200156],94.322
13,CCC1CCCCN1C(=O)c1ccc(C)c(Br)c1 (stereo not drawn) [CBK081559],85.7145
14,Cc1nccn1C(C(=O)NCC1(C)COC1)c1ccccc1 (stereo not drawn) [CBK281743],119.954
15,C[S+]([O-])c1nc2ccccc2s1 (stereo not drawn) [CBK028233],64.2092
16,O=C(CSc1nnc(-c2ccccc2)[nH]1)c1cccc([N+](=O)[O-])c1 [CBK263287],73.2228
17,CC(CNC(=O)C1CCCCC1C(=O)O)c1ccccc1 (stereo not drawn) [CBK268028],101.027
18,O=C(NCCn1nc(-c2cccs2)ccc1=O)c1ccccc1F [CBK283835],81.3623
19,O=C(Nc1cccnc1)c1cc(S(=O)(=O)N2CCOCC2)ccc1Cl [CBK262099],90.8137
20,O=C(Oc1n[nH]c2ccccc12)c1ccc(Cl)cc1 [CBK009976],77.8473
21,CCCn1cc(NC(=O)NCc2cc3c(cc2OC)CCC3)nn1 [CBK306614],91.6893
22,Cc1ccccc1Sc1cc(C(F)(F)F)ccn1 [CBK115233],93.2665
23,Cc1cc(NC(=O)c2nn(-c3nc4ccccc4s3)c3ccccc23)no1 [CBK048489],93.6776
24,COc1cccc2c1CCN=C2C[C@H]1CN(C(=O)C2CC2)CC[C@H]1CC(=O)O [CBK289164],97.0676
25,CSc1nc(NC(=O)c2cccs2)cc(N2CCNCC2)n1 [CBK050315T],93.1478
26,Cc1cccc(Nc2nc(C)cc3n[nH]c(=O)n23)c1 [CBK288477],22.0347

row,Compound,% of control remaining
1,Cc1nccn1CC1CCCN(Cc2nc3ccccc3n2C)C1 (stereo not drawn) [CBK281975],96.6402
2,Cn1c(CN2CCN(S(C)(=O)=O)CC2)nc2cc([N+](=O)[O-])ccc21 [CBK268362],98.7976
3,O=S(=O)(c1cccc(S(=O)(=O)N2CCOCC2)c1)c1ccc(Cl)c(S(=O)(=O)N2CCOCC2)c1 [CBK261260],98.6018
4,CC1CCC(C(=O)Nc2ccc(C(=O)O)cc2)CC1 (stereo not drawn) [CBK287234],93.5434
5,COc1ccc([C@@]2(O)CC[C@@H]3CN(C(=O)C4CCCC4)C[C@@H]32)cc1 [CBK285260],90.7741
6,O=C(CNC(=O)C1CCCCC1)NNC(=O)c1ccccc1Br [CBK267828],112.074
7,CCn1nc(C2CCCC2)nc1-c1cnc2ccnn2c1C [CBK306626],101.894
8,COC(=O)c1c(NC(=O)CC2Sc3ccccc3NC2=O)sc(C)c1C (stereo not drawn) [CBK264429],123.562
9,O=C1COc2ccccc2C/C=C/CC2(CCN(C(=O)Cc3cccnc3)CC2)C(=O)NCCN1 [CBK292153],84.706
10,O=C(CSc1nnc(-c2cccc(Br)c2)o1)Nc1cccc([N+](=O)[O-])c1 [CBK264212],92.2104
11,CC12CC(NC(=O)N1c1ccc(C(=O)O)cc1)c1ccccc1O2 (stereo not drawn) [CBK287226],85.2084
12,COc1cccc(-c2ccc3c(c2)[nH]c(=O)n3C2CCN(C(=O)c3ccc(C)c(OC)c3)CC2)c1 [CBK153141],92.0125
13,Cc1cc(C)cc(N(C(C)C(=O)Nc2ccccc2-c2ccccc2)S(C)(=O)=O)c1 (stereo not drawn) [CBK268770],99.7367
14,COc1ccc2[nH]c(=O)c(CN(CCN(C)C)C(=S)Nc3ccc(F)cc3)cc2c1 [CBK135011],61.9528
15,O=C(NCCc1c[nH]c2ccc(Cl)cc12)c1ccc(Cl)cc1Cl [CBK159750],12.7942
16,CC1CCCCC1NC(=O)Cn1ncn2c(cc3ccsc32)c1=O (stereo not drawn) [CBK284196],87.7524
17,O=C1c2ccccc2C(=O)N1CCc1nn2c(-c3cccnc3)nnc2s1 [CBK269793],88.6052
18,CC(C)Oc1cccc(C(=O)Nc2ccc(N3CCN(C(=O)C(C)(C)C)CC3)cc2)c1 [CBK270280],70.3178
19,Cc1nc(C)c(C(=O)N2CCN(Cc3ccccc3)CC2)s1 [CBK200177],84.5333
20,CCOc1cc(CNCCO)c(Cl)cc1OC [CBK269309C],131.124
21,CC(C)c1cc(C(=O)NC(C)(C)CN2CCCCC2C)n(C)n1 (stereo not drawn) [CBK282644],111.078
22,Nn1c(SCc2cc(=O)[nH]c3ccccc23)nnc1C(O)c1ccccc1 (stereo not drawn) [CBK268405],79.6655
23,CN(C)c1cccc(-c2cncc(Nc3ccc(Cl)cc3)n2)c1 [CBK065738],67.465
24,CCC(C)(C)C(=O)Nc1ccc(Cl)nc1 [CBK091334],87.4424
25,Cn1c(=O)n(C)c2cc(NC(=O)CN(c3ccccc3)S(C)(=O)=O)ccc21 [CBK270094],74.2288
26,Cc1nc2cc(NC(=O)Cc3c(C)nc4ccccc4c3C)ccc2o1 [CBK297083],98.1257

row,Compound,% of control remaining
1,COc1ccc(C2CC(=O)C(=CNCCN3CCN(C(=O)c4ccccc4)CC3)C(=O)C2)cc1 (stereo not drawn) [CBK264762],102.31
2,CCNS(=O)(=O)c1ccc2c(c1)N(Cc1nc(C)c(C)o1)CC2 [CBK305189],17.5954
3,Cc1cccc(CCN2CCC3(CC2)NCCc2c3[nH]c3ccc(Br)cc23)c1 [CBK039280],58.6022
4,Cc1c(C(C)NCC(O)c2ccncc2)cnn1-c1ccc(C#N)cc1 (stereo not drawn) [CBK305403],84.0182
5,O=C(CCN1C(=O)c2ccc([N+](=O)[O-])cc2C1=O)Nc1ccccc1-c1ccccc1 [CBK265134],74.8945
6,COc1ccc(Oc2nccnc2N2CCN(Cc3ccc(Cl)c(Cl)c3)CC2)cc1OC [CBK083038T],69.8212
7,Cc1ccccc1NC(=O)Cn1cnc2c(cnn2-c2ccccc2)c1=O [CBK287530],80.4508
8,COc1ccc(-c2cnn(-c3cncnc3)n2)cc1 [CBK112763],82.4459
9,CCOc1ccccc1NC(=O)NCCSCc1ccco1 [CBK057501],93.5997
10,CCC(O)CNS(=O)(=O)c1ccc(C(C)C)cc1 (stereo not drawn) [CBK043543],78.4609
11,Fc1ccc([C@@H]2CN(Cc3cccnc3)C[C@H]2c2cc[nH]n2)cc1 [CBK283054],90.6369
12,O=C(c1cnoc1-c1ccc([N+](=O)[O-])cc1)N1CCCC1 [CBK153846],81.5801
13,COc1ccc(-c2nc(NCc3ccccc3)n(C(=O)c3ccc([N+](=O)[O-])cc3)n2)cc1 [CBK268265],113.794
14,O=C(Nc1ccc2ncccc2c1)c1cnc(-c2cccc(C(F)(F)F)c2)c(-c2cccnc2)c1 [CBK037591],112.513
15,CC(C)c1ccc2c(c1)C(N1CCN(C)CC1)Cc1cccnc1S2 (stereo not drawn) [CBK026244G],64.2604
16,c1ccc([C@@H]2CN(Cc3ccncc3)C[C@H]2c2cc[nH]n2)cc1 [CBK285161],85.7203
17,Nc1ncc(-c2ccco2)nc1-c1ccc(C=O)cc1 [CBK064095],124.229
18,COc1ccccc1C(=O)N1CCC(Cc2cccc(-c3cccs3)c2)(C(N)=O)CC1 [CBK285742],98.4942
19,CN1CCN(c2ccc(-c3cncc(NC4CCOCC4)n3)cn2)CC1 [CBK037229],117.694
20,CCN(Cc1ccc(C#N)cc1F)C(=O)NC(C)c1cnn(C)c1C (stereo not drawn) [CBK305643],75.8903
21,O=S(=O)(c1ccc(C(F)(F)F)cc1)c1ccc2nccc(N3CCNCC3)c2c1 [CBK200016C],90.9012
22,CNC(=O)c1cccc(NC(=O)c2cc(-c3ccc(O)cc3)cnc2N(C)C)c1 [CBK106397],97.2155
23,O=C(N/N=C/c1cc([N+](=O)[O-])ccc1Cl)c1ccc(O)c(O)c1 [CBK261599],78.108
24,Cc1ccc(NC(=O)c2cnc3ccccc3n2)c(C)n1 [CBK200218],86.1317
25,O=C(Nc1nnc(-c2ccco2)o1)c1cccc(C(F)(F)F)c1 [CBK287422],103.626
26,CNC(=O)C1(Cc2ccc(-c3ccccc3)cc2)CCN(C(=O)CCc2ccccc2)CC1 [CBK285765],99.7657
